Measurements taken from patent US5204328A, “Peptides having atrial natriuretic factor activity” (Merck & Co., Inc., priority 1991, dated 1993).
At least one peptide structure holds a part that was inferred or is arguable (an end, a ring closure or a residue). Where a SMILES comes first, the peptide text is derived from it. Bridges are numbered along the chain shown (N, C = ends). [ ]: non-standard residue; d: D form.

Tested on: Aorta
Assay: Vasorelaxant relative potency, aorta
Type: cell-based
[1] = Table 3, (5-26)-NH2 analogs, relative to I (5-26)-NH2 = 1
[2] = Table 1, (3-28) analogs, relative to sequence I = 1

| Structure (SMILES) | Vasorelaxant Relative Potency Aorta [1] | Vasorelaxant Relative Potency Aorta [2] |
| --- | --- | --- |
| CC[C@H](C)[C@@H]1NC(=O)[C@H](CCCNC(=N)N)NC(=O)[C@H](CC(=O)O)NC(=O)[C@H]([C@@H](C)CC)NC(=O)[C@H](CCCNC(=N)N)NC(=O)CNC(=O)CNC(=O)[C@H](Cc2ccccc2)NC(=O)[C@@H](NC(=O)[C@H](CO)NC(=O)[C@@H](N)CO)CSSC[C@@H](C(=O)N[C@@H](CC(N)=O)C(=O)N[C@@H](CO)C(=O)N[C@@H](Cc2ccccc2)C(N)=O)NC(=O)CNC(=O)[C@H](CC(C)C)NC(=O)CNC(=O)[C@H](CO)NC(=O)[C@H](CCC(N)=O)NC(=O)[C@H](C)NC(=O)CNC1=O [I Flynn et al. (5-26)-NH2, reference compound] (H-SSCFGGRIDRIGAQSGLGCNSF-NH2; disulfide 3-19) | 1 |  |
| CC[C@H](C)[C@@H]1NC(=O)[C@H](CCCNC(=N)N)NC(=O)CNC(=O)CNC(=O)[C@H](Cc2ccccc2)NC(=O)[C@@H](NC(=O)[C@H](CO)NC(=O)[C@H](CO)NC(=O)[C@H](CCCNC(=N)N)NC(=O)[C@@H](N)CCCNC(=N)N)CSSC[C@@H](C(=O)N[C@@H](CC(N)=O)C(=O)N[C@@H](CO)C(=O)N[C@@H](Cc2ccccc2)C(=O)N[C@@H](CCCNC(=N)N)C(=O)N[C@@H](Cc2ccc(O)cc2)C(=O)O)NC(=O)CNC(=O)[C@H](CC(C)C)NC(=O)CNC(=O)[C@H](CO)NC(=O)[C@H](CCC(N)=O)NC(=O)[C@H](C)NC(=O)[C@@H]2CCCN2C(=O)[C@H]([C@@H](C)CC)NC(=O)[C@H](CCCNC(=N)N)NC(=O)[C@H](CC(=O)O)NC1=O [Structure 13] (H-RRSSCFGGRIDRIPAQSGLGCNSFRY-OH; disulfide 5-21) |  | 0.30 |
| CC[C@H](C)[C@@H]1NC(=O)[C@H](CCCNC(=N)N)NC(=O)CNC(=O)CNC(=O)[C@H](Cc2ccccc2)NC(=O)[C@@H](NC(=O)[C@H](CO)NC(=O)[C@H](CO)NC(=O)[C@H](CCCNC(=N)N)NC(=O)[C@@H](N)CCCNC(=N)N)CSSC[C@@H](C(=O)N[C@@H](CC(N)=O)C(=O)N[C@@H](CO)C(=O)N[C@@H](Cc2ccccc2)C(=O)N[C@@H](CCCNC(=N)N)C(=O)N[C@@H](Cc2ccc(O)cc2)C(=O)O)NC(=O)CNC(=O)[C@H](CC(C)C)NC(=O)CNC(=O)[C@H](CO)NC(=O)[C@H](CCC(N)=O)NC(=O)[C@H](C)NC(=O)[C@H]2CCCN2C(=O)[C@H]([C@@H](C)CC)NC(=O)[C@H](CCCNC(=N)N)NC(=O)[C@H](CC(=O)O)NC1=O [Structure 14] (H-RRSSCFGGRIDRI[dP]AQSGLGCNSFRY-OH; disulfide 5-21) |  | 0.53 |
| CC[C@H](C)[C@@H]1NC(=O)[C@H](CCCNC(=N)N)NC(=O)[C@H](CC(=O)O)NC(=O)[C@H]([C@@H](C)CC)NC(=O)[C@H](CCCNC(=N)N)NC(=O)CNC(=O)CNC(=O)[C@H](Cc2ccccc2)NC(=O)[C@@H](NC(=O)[C@H](CO)NC(=O)[C@H](CO)NC(=O)[C@H](CCCNC(=N)N)NC(=O)[C@@H](N)CCCNC(=N)N)CSSC[C@@H](C(=O)N[C@@H](CC(N)=O)C(=O)N[C@@H](CO)C(=O)N[C@@H](Cc2ccccc2)C(=O)N[C@@H](CCCNC(=N)N)C(=O)N[C@@H](Cc2ccc(O)cc2)C(=O)O)NC(=O)[C@@H]2CCCN2C(=O)[C@H](CC(C)C)NC(=O)CNC(=O)[C@H](CO)NC(=O)[C@H](CCC(N)=O)NC(=O)[C@H](C)NC(=O)CNC1=O [Structure 19] (H-RRSSCFGGRIDRIGAQSGLPCNSFRY-OH; disulfide 5-21) |  | 0.19 |
| CC[C@H](C)[C@@H]1NC(=O)[C@H](CCCNC(=N)N)NC(=O)[C@H](CC(=O)O)NC(=O)[C@H]([C@@H](C)CC)NC(=O)[C@H](CCCNC(=N)N)NC(=O)CNC(=O)CNC(=O)[C@H](Cc2ccccc2)NC(=O)[C@@H](NC(=O)[C@H](CO)NC(=O)[C@@H](N)CO)CSSC[C@@H](C(=O)N[C@@H](CC(N)=O)C(=O)N[C@@H](CO)C(=O)N[C@@H](Cc2ccccc2)C(N)=O)NC(=O)CNC(=O)[C@H](CC(C)C)NC(=O)[C@H]2CCCN2C(=O)[C@H](CO)NC(=O)[C@H](CCC(N)=O)NC(=O)[C@H](C)NC(=O)CNC1=O [Structure 28] (H-SSCFGGRIDRIGAQS[dP]LGCNSF-NH2; disulfide 3-19) | 0.16 |  |
